These are yes or no findings as the source states them, for the method shown. Binding seen in cells or lysates may run through a third protein. Some binding calls cover weakened binding; strength is not graded here.
T1: IRX5 (human) (UniProt P78411)
T1 sequence: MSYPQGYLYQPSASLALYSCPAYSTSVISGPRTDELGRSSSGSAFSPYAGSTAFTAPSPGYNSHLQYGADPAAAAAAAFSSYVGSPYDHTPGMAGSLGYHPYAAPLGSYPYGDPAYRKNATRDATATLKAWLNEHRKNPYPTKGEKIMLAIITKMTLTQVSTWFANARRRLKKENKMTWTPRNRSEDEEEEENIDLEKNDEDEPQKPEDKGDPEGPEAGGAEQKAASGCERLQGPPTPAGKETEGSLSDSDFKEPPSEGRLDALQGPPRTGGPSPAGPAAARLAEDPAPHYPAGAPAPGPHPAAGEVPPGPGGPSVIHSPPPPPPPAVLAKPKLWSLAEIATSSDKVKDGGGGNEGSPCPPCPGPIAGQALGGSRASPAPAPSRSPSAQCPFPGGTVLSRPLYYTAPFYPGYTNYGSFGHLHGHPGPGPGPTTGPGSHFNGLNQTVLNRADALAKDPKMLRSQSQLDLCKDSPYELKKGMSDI

Amino acid sequences for entries named in this document (tags omitted).
UniProt P43694: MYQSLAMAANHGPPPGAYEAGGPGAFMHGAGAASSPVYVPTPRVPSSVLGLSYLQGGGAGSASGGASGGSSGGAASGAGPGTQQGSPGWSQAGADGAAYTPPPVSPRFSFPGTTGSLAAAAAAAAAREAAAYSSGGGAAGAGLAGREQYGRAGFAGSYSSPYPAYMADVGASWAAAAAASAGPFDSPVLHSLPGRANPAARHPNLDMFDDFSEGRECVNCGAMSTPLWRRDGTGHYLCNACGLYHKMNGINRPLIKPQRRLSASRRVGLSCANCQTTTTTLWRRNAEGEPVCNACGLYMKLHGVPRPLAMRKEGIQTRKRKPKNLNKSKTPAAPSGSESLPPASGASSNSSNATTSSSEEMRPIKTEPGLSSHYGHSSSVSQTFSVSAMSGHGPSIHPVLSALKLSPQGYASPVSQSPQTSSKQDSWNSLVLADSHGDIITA
UniProt P52952: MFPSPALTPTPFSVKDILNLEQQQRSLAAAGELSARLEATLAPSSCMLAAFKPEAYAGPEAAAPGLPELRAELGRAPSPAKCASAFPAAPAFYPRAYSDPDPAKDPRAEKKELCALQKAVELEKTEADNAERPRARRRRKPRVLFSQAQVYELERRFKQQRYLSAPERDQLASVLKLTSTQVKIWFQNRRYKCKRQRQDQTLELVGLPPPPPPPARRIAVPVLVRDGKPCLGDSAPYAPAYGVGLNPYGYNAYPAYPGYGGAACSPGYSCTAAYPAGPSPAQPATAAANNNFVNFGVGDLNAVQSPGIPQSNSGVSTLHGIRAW

T2: IRX3 (human) (UniProt P78415)
T2 sequence: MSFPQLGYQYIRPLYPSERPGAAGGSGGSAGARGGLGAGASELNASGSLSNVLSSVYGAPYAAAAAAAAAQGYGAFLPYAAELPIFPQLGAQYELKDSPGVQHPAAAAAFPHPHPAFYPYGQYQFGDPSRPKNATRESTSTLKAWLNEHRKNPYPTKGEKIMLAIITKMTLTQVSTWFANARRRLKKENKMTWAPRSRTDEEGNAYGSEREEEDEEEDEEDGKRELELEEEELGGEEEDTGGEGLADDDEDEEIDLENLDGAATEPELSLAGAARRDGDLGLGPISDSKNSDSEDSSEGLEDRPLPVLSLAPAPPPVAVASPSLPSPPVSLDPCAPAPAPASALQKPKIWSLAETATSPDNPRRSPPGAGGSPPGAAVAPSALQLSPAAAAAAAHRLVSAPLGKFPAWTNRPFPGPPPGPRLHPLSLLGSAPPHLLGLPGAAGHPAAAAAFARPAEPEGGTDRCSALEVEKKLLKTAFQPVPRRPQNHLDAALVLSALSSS


What was measured:
[1] = target: T1, IRX5 (human); assay: co-IP; as a1, but HEK293 co-transfected with five TFs: IRX3, IRX5, GATA4, NKX2-5 and TBX5
[2] = target: T2, IRX3 (human); assay: as above
[3] = target: T1, IRX5 (human); assay: co-IP; HEK293 co-transfected with the two TFs of the pair, lysed 24 h post-transfection (1% TritonX-100, 100 mM NaCl, 50 mM Tris-HCl, 1 mM EGTA); antibody cross-linked to Dynabeads Protein G, 1 mg lysate, 4 °C, 2 h; Western blot; precipitating antibody not given
[4] = target: T2, IRX3 (human); assay: as above
[5] = target: T1, IRX5 (human); assay: co-IP; as a1, but HEK293 co-transfected with three TFs: IRX3, IRX5 and GATA4
[6] = target: T2, IRX3 (human); assay: as above
[7] = target: T1, IRX5 (human); assay: co-IP; as a1, but HEK293 co-transfected with four TFs: IRX3, IRX5, GATA4 and NKX2-5
[8] = target: T2, IRX3 (human); assay: as above
[9] = target: T2, IRX3 (human); assay: condition: only with IRX5, GATA4 and TBX5 co-transfected; co-IP; as a1, but HEK293 co-transfected with five TFs: IRX3, IRX5, GATA4, NKX2-5 and TBX5
[10] = target: T1, IRX5 (human); assay: condition: only with GATA4 and NKX2-5 co-transfected; co-IP; as a1, but HEK293 co-transfected with four TFs: IRX3, IRX5, GATA4 and NKX2-5
[11] = target: T1, IRX5 (human); assay: condition: only with GATA4, NKX2-5 and TBX5 co-transfected; co-IP; as a1, but HEK293 co-transfected with five TFs: IRX3, IRX5, GATA4, NKX2-5 and TBX5
[12] = target: T2, IRX3 (human); assay: condition: only with IRX5, GATA4 and NKX2-5 co-transfected; co-IP; as a1, but HEK293 co-transfected with five TFs: IRX3, IRX5, GATA4, NKX2-5 and TBX5

Row | Molecule | binding [1] | binding [2] | binding [3] | binding [4] | binding [5] | binding [6] | binding [7] | binding [8] | binding [9] | binding [10] | binding [11] | binding [12]
1 | GATA4 (from UniProt P43694 1-442) | binds | no binding | binds | no binding | binds | no binding | binds | no binding | – | – | – | –
2 | NKX2-5 (from UniProt P52952 1-324) | binds | – | binds | binds | – | – | binds | no binding (condition: with IRX5 and GATA4 co-transfected) | no binding | – | – | –
3 | IRX3 (protein, UniProt P78415 1-501) MSFPQLGYQYIRPLYPSERPGAAGGSGGSAGARGGLGAGASELNASGSLSNVLSSVYGAPYAAAAAAAAAQGYGAFLPYAAELPIFPQLGAQYELKDSPGVQHPAAAAAFPHPHPAFYPYGQYQFGDPSRPKNATRESTSTLKAWLNEHRKNPYPTKGEKIMLAIITKMTLTQVSTWFANARRRLKKENKMTWAPRSRTDEEGNAYGSEREEEDEEEDEEDGKRELELEEEELGGEEEDTGGEGLADDDEDEEIDLENLDGAATEPELSLAGAARRDGDLGLGPISDSKNSDSEDSSEGLEDRPLPVLSLAPAPPPVAVASPSLPSPPVSLDPCAPAPAPASALQKPKIWSLAETATSPDNPRRSPPGAGGSPPGAAVAPSALQLSPAAAAAAAHRLVSAPLGKFPAWTNRPFPGPPPGPRLHPLSLLGSAPPHLLGLPGAAGHPAAAAAFARPAEPEGGTDRCSALEVEKKLLKTAFQPVPRRPQNHLDAALVLSALSSS | – | – | binds | – | no binding (condition: with GATA4 co-transfected) | – | – | – | – | no binding | no binding | –
4 | TBX5 (protein, UniProt Q99593 1-518) MADADEGFGLAHTPLEPDAKDLPCDSKPESALGAPSKSPSSPQAAFTQQGMEGIKVFLHERELWLKFHEVGTEMIITKAGRRMFPSYKVKVTGLNPKTKYILLMDIVPADDHRYKFADNKWSVTGKAEPAMPGRLYVHPDSPATGAHWMRQLVSFQKLKLTNNHLDPFGHIILNSMHKYQPRLHIVKADENNGFGSKNTAFCTHVFPETAFIAVTSYQNHKITQLKIENNPFAKGFRGSDDMELHRMSRMQSKEYPVVPRSTVRQKVASNHSPFSSESRALSTSSNLGSQYQCENGVSGPSQDLLPPPNPYPLPQEHSQIYHCTKRKEEECSTTDHPYKKPYMETSPSEEDSFYRSSYPQQQGLGASYRTESAQRQACMYASSAPPSEPVPSLEDISCNTWPSMPSYSSCTVTTVQPMDRLPYQHFSAHFTSGPLVPRLAGMANHGSPQLGEGMFQHQTSVAHQPVVRQCGPQTGLQSPGTLQPPEFLYSHGVPRTLSPHQYHSVHGVGMVPEWSDNS | binds | – | – | binds | – | – | – | – | – | – | – | no binding

Source: paper PMC9739390
